Data taken from patent US20110183892A1 (priority 2007, published 2011).

How the values were obtained:
[1] = system: yeast cells; conditions: gentamicin 500 μg/ml
Procedure: (§1) Frameshifting in yeast was monitored by using the dual luciferase reporter plasmid pYDL-LA (which contains an L-A virus derived −1PRF signal) and pYDL-Ty1 (which contains a Ty1 derived +1PRF signal)^20 in the presence or absence of gentamicin (500 μg/ml). […] Thus, similar to the loss of the RAC complex or Ssb function, the presence of gentamicin specifically affected −1 PRF in yeast. To test the generality of this hypothesis, the frameshifting studies were extended to assays in human-derived cells using reporter plasmids harboring the HIV-1 −1 PRF signal^21. These studies employed HeLa CD4^+ I and Jurkat cells transiently transfected with pJD175c (harboring the HIV −1 PRF signal) or pJD175d (0-frame control)^21. Gentamicin stimulated HIV-1 directed −1 PRF by up to 40% in both cell lines (FIG. 2B).
(§2) Frameshifting Assays. Yeast BY4741 (MATa his3Δ1 leu2Δ0 met15Δ0 ura3Δ0) transformed with pYDL-LA, pYDL-Ty1, or pYDL-control^20 were grown overnight in the presence or absence of gentamicin (500 μg/ml). Cell extracts were prepared and frameshifting was measured as previously described^20,26. […] The Renilla and firefly luciferase activities produced by the 0-frame control and −1 PRF test construct were measured for each of the gentamicin concentrations. A minimum of three independent luciferase readings were taken from each sample. […]

[2] = system: L-A virus derived −1PRF signal; experiment: Dual luciferase frameshifting assay in yeast, pYDL-LA reporter; conditions: gentamicin 500 μg/ml vs absence
Procedure: as §1, with “These studies employed HeLa CD4^+ I and Jurkat cells transiently transfected with pJD175c (harboring the HIV −1 PRF signal) or pJD175d (0-frame control)^21. Gentamicin stimulated HIV-1 directed −1 PRF by up to 40% in both cell lines (FIG. 2B).” left out
(§3) FIG. 2 are bar graphs showing the effects of gentamicin on PRF. (A) −1 PRF promoted by the endogenous yeast L-A viral signal and +1 PRF promoted by the Ty1 retrotransposable element signal were monitored in yeast cells in the presence (500 μg/ml) or absence of gentamicin. (B) −1 PRF promoted by the HIV-1 frameshift signal was monitored in both HeLa and Jurkat cells cultured in the indicated concentrations of gentamicin.
as §2, with “Yeast BY4741 (MATa his3Δ1 leu2Δ0 met15Δ0 ura3Δ0) transformed with pYDL-LA, pYDL-Ty1, or pYDL-control^20 were grown overnight in the presence or absence of gentamicin (500 μg/ml).” left out

[3] = system: HIV-1 strain LAI; experiment: Limit-dilution titer of infectious virus with p24 antigen capture assay; format: cell-based; conditions: Jurkat E6-1, 50 μg/ml, days 4-10 post infection
Procedure: (§4) (A) Jurkat E6-1 cells were grown in RPMI-1640 media supplemented with 10% FBS. Cells were infected with HIV-1 (LAI) at an MOI of 0.01 in media containing gentamicin at 0, 50, 250, or 500 μg/ml. Infected or mock infected cells were maintained in the above media containing the corresponding concentration of gentamicin. Clarified viral supernatant was assayed for RT activity on days 2, 4, 6, 8, and 10 post infection. […] Results are from an average of 3 experiments with error bars corresponding to standard deviation values. (B) Clarified viral supernatants from days 4, 6, 8, and 10 above were used to perform limit-dilution assays in order to determine the level of infectious virus produced in untreated and gentamicin treated cells. A p24 antigen capture assay was used to detect virus. Results are reported as TCID50/ml vs. day post infection. The antigen capture assay was repeated with similar results while the RT activity assay was repeated twice with similar results.
Cells and viruses. Jurkat E6-1 cells (obtained through the ATCC) were cultured in RPMI-1640 supplemented with 10% fetal bovine serum at 37° C. and 5% CO2 according to the ATCC data sheet. HIV-1 strain LAI was obtained through the NIH AIDS Research and Reference Reagent Program.
HIV infection of Jurkat cells. All experiments were performed with Jurkat cells in 24-well plates and in duplicate. […]

[4] = system: Jurkat E6-1 cells; conditions: Jurkat E6-1, 50 μg/ml
Procedure: as §4
HIV infection of Jurkat cells. All experiments were performed with Jurkat cells in 24-well plates and in duplicate. 2×10^5 cells were infected at an MOI of 0.01 or mock infected by incubating cells and virus in 150 μl of complete medium containing 0, 50, 250, or 500 μg/ml of gentamicin (Sigma) for 1 h at 37° C. in 5% CO2. […]

[5] = system: Ty1 derived +1PRF signal; conditions: yeast, gentamicin 500 μg/ml vs absence
Procedure: as §1, with “These studies employed HeLa CD4^+ I and Jurkat cells transiently transfected with pJD175c (harboring the HIV −1 PRF signal) or pJD175d (0-frame control)^21. Gentamicin stimulated HIV-1 directed −1 PRF by up to 40% in both cell lines (FIG. 2B).” left out
as §3
as §2, with “Yeast BY4741 (MATa his3Δ1 leu2Δ0 met15Δ0 ura3Δ0) transformed with pYDL-LA, pYDL-Ty1, or pYDL-control^20 were grown overnight in the presence or absence of gentamicin (500 μg/ml).” left out

gentamicin was tested, and the “effect on cell growth” value [1] was “did not noticeably affect cell growth”, the “increase in L-A virus promoted −1 PRF” value [2] was over 3 fold and the “infectious virus in cell-free supernatant” value [3] was “a small amount of virus was detectable at day 10 only”. The “effects on cell growth or morphology” value [4] was “no noticeable effects on cell growth or morphology” and the “effect on Ty1 directed +1 PRF” value [5] was “virtually no effect”.
